# Data from PubChem BioAssay AID1508623 (National Center for Advancing Translational Sciences (NCATS), 2021).
# About 450 (0.94%) of roughly 48,000 compounds were called active. Roughly 19% stayed inconclusive and do not appear here. Calls come from the whole dose curve; as a rule, active = well fitted inhibition curve with a large enough effect; inconclusive = small, poorly fitted or top-dose-only effect; inactive = no such curve, though single readings can be large or run the other way. Some of the results follow.
# Assay: Primary qHTS for Identification of Small Molecule Inhibitors of Huntingtin Promoter Activity; note: nearly all actives have a fitted effect of over 50% in size
# Settings: HEK293 HTT promoter firefly luciferase reporter (activity 0% = vehicle and -100% = no light), 24 h; series mostly up to 57.5 µM; activity change, negative = inhibition: at the top concentration
# Summary of the method: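 Luminescence was read after Dual-Glo reagent and a 10 min room-temperature incubation. Values were normalized to vehicle (0% activity) and zero RLU (-100% activity). Reporter HEK293 cells had been exposed to compounds (up to 57.5 uM final) for 24 h.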
# Potency is the fitted concentration of half-maximal effect.
Compound,"activity change, negative = inhibition",Potency
Cc1cc(C(=O)O)c2c(=O)n(C)c(=O)n(C)c2n1,inactive: 1.49%,
COc1ccc(-c2cn3c(n2)sc2cc(C(=O)NC4CCCc5ccccc54)ccc23)cc1 (stereo not given),inactive: -9.32%,
CCN(Cc1ccccc1)Cc1c(O)ccc2c(=O)c(-c3ccccc3OC)c(C(F)(F)F)oc12,inactive: -23.4%,
Cc1cccc(OCCSc2nc3ccccc3n2CC(=O)N2CCCCC2)c1C,inactive: -42.3%,
CC(=O)Nc1nonc1-c1nnc(SCC(=O)Nc2ccc(F)cc2F)n1-c1ccccc1,inactive: 3.61%,
Cc1ccc(Cn2c(CNS(=O)(=O)c3c(C)cc(C)cc3C)nc3cccnc32)cc1,inactive: -22.3%,
Cc1c(C)n(Cc2ccccc2)c2ccc(C(=O)NC(C)c3ccccc3)cc12 (stereo not given),inactive: 5.93%,
CCOC(=O)N1CCN(S(=O)(=O)N2CCCC(C(=O)NCc3cc(OC)ccc3OC)C2)CC1 (stereo not given),inactive: -22.7%,
COc1ccc(N2CC(NC(=O)/C=C\c3ccc(OC)c(OC)c3)CC2=O)cc1 (stereo not given),inactive: 1.43%,
Cc1nc(CC(=O)Nc2ccc(C)c(C)c2)cs1,inactive: 19.7%,
CCn1ccc2cc(S(=O)(=O)N3CCCN(C(=O)Nc4ccccc4OC)CC3)ccc21,inactive: -24.6%,
COc1ccc(N2CCN(C(CNC(=O)CC(C)C)c3ccc4c(c3)OCO4)CC2)cc1 (stereo not given),inactive: -8.44%,
CCc1cccc(CC)c1NC(=O)Cn1nnc2sc(-c3ccccc3)cc2c1=O,inactive: 5.54%,
Cc1ccc(-c2nc3ccc(Cl)cn3c2Nc2ccc3c(c2)OCCO3)o1,inactive: 32.7%,
COc1ccc(-c2nc(CS(=O)CC(=O)NCc3ccc(F)cc3)c(C)o2)cc1OC (stereo not given),inactive: -9.28%,
CCCCOc1ccc(C2=NC(c3ccncc3)=Nc3ccc(Br)cc3N2)cc1,inactive: -18.3%,
CCCCCC(=O)O[C@]1(C(C)=O)CC[C@H]2[C@@H]3CCC4=CC(=O)CC[C@]4(C)[C@H]3CC[C@@]21C,inactive: -24.6%,
COc1ccc(OCC(=O)Nc2ccc(C(=O)OCc3cc(=O)n4nc(C)sc4n3)cc2)cc1,inactive: -20.9%,
Cc1c(Cl)cccc1-n1ncc(C(=O)N2CCc3ccccc3C2)c1C1CCN(C(=O)OC(C)(C)C)CC1,inactive: -12.7%,
Cc1ccc(NC(=O)c2oc3ccccc3c2NC(=O)Cc2cccs2)cc1,inactive: 9.82%,
CCOc1ccccc1NC(=O)Nc1nnc(N(C)Cc2ccccc2)s1,inactive: 38.3%,
COc1ccccc1NC(=O)CCS(=O)(=O)c1ccc2nc(C)sc2c1,inactive: -1.59%,
CC(=O)N1CCC(N(C(=O)Nc2ccc(C)c(F)c2)C(C)C)CC1,inactive: 51.8%,
Cc1ccccc1NC(=O)c1c(NC(=O)C(C)Oc2cccc(Cl)c2)sc2c1CCCC2 (stereo not given),inactive: -16.9%,

Compound,"activity change, negative = inhibition",Potency
O=C(CCn1cnc2onc(-c3ccc(F)cc3)c2c1=O)N1CCN(c2ccc(F)cc2)CC1,inactive: -13%,
CCn1c(C(=O)N2CCCC(C(=O)NCCCOC)C2)cc2sccc21 (stereo not given),inactive: -22.2%,
COc1ccccc1CNC(=O)CC1N=C2c3ccccc3N=C(SCC(=O)Nc3ccc(F)cc3)N2C1=O (stereo not given),inactive: 0%,
COc1cc(NC(=O)c2c(-c3ccc(C)cc3)nnc3ccccc23)cc(OC)c1OC,inactive: 2.57%,
Cc1oc2c(c1C(=O)Nc1cccc(Br)c1)C1=NCCN1C=N2,inactive: -5.02%,
O=C(Cn1nc(-c2ccccc2)ccc1=O)NCc1ccc(F)cc1Cl,inactive: -8.67%,
O=C(c1nc(-c2ccc(Cl)cc2)n2c1CCCCC2)N1CCN(c2ccccc2F)CC1,inactive: -16.1% [at 11.5 µM],
CC(=O)Nc1ccc(NC(=O)CCCc2nc(-c3ccc(C(C)(C)C)cc3)no2)cc1,inactive: -88.7%,
CCOc1cc(C(=O)Nc2ccc3oc(-c4ccc(F)cc4Cl)nc3c2)cc(OCC)c1OCC,inactive: -2.84%,
Cc1ccc(NC(=O)c2cc(C)nn2-c2ccccc2)cc1,inactive: -0.248%,
O=C(CSc1nc(-c2ccc(F)cc2)cc(C(F)(F)F)n1)NCc1ccccc1,inactive: -25.5%,
COc1ccc(OCC(=O)NCC2(N3CCN(C)CC3)CCCCC2)cc1,inactive: -3.9%,
CCCCNC(=O)CCC(=O)NNc1nc2ccccc2c2nc(-c3ccccc3)nn12,inactive: -3.43%,
Cc1cccc(C(=O)Nc2c3c(nn2-c2ccc(Cl)cc2)CS(=O)(=O)C3)c1,inactive: -22.3%,
O=[N+]([O-])c1cc(-c2nc(-c3ccccc3)no2)ccc1NCC1CCCO1 (stereo not given),inactive: 25.4%,
CCOC(=O)c1ccc2c(c1)N(Cc1cccc(OC)c1)C(=O)c1ccccc1S2(=O)=O,inactive: -16.6%,
CC(C)(C)OC(=O)N1CCC(c2c(C(=O)NC3CCN(Cc4ccccc4)CC3)cnn2-c2cccc(F)c2)CC1,inactive: -8.15%,
Cc1ccc(-c2cc(C(=O)NC(C)c3ccccc3)c3ccccc3n2)cc1C (stereo not given),inactive: -12.2%,
Cc1ccc2ncc(C(=O)NCc3ccccc3Cl)c(=O)n2c1,inactive: -17%,
CC(=O)Nc1ccccc1-c1nc2ccccc2n(CC(=O)c2ccc(C)c(C)c2)c1=O,inactive: 7.07%,
CCC(CC)C(=O)Nc1ccc(OCc2cc(=O)n3ccsc3n2)cc1,inactive: 16.6%,
COc1ccc(C)cc1NCc1nnc2n1CCCCC2,inactive: -8.67%,
Cc1cc(OC(C)C(=O)N(Cc2ccco2)Cc2ccccc2F)cc(C)c1Cl (stereo not given),inactive: -14.8%,
COc1ccc(-c2cc(C(=O)Oc3cccc(C)c3)c3ccccc3n2)cc1,inactive: 1.73%,

Compound,"activity change, negative = inhibition",Potency
Cc1ccc(CCNC(=O)C2CCN(c3nnc(C)c4c(C)n(-c5ccccc5)nc34)CC2)cc1,inactive: -26.3%,
COc1ccc(NC(=O)C2CCCN(C(=O)c3cnn(-c4ccc(F)cc4)c3-n3cccc3)C2)cc1 (stereo not given),inactive: -23.8%,
COc1ccc(NC(=O)CSc2nc3ncccc3[nH]2)c(OC)c1,inactive: -11.8%,
Cn1c(=O)cc(OCC(=O)N2CCN(c3ccccc3)CC2)c2ccccc21,inactive: -5.93%,
CCOc1cccc2sc(N(Cc3cccnc3)C(=O)C3CCCCC3)nc12,inactive: -16.1%,
CCc1ccccc1NC(=O)c1ccc(F)c(S(=O)(=O)NC2CCCCCC2)c1,inactive: -37.6%,
Cc1ccc(NC(=O)CSc2nc3ccccc3c3nc(CCn4cncc4C)nn23)cc1F,inactive: -29.1%,
CN1CCN(C(c2ccccc2Cl)c2sc3nc(-c4ccco4)nn3c2O)CC1 (stereo not given),inactive: -3.58%,
CCC(=O)N1CCc2cc(Br)cc(S(=O)(=O)N3CCN(c4ccc(C(C)=O)cc4)CC3)c21,inactive: -2.54%,
O=C(Cn1c(=O)n(Cc2ccco2)c(=O)c2ccc(C(=O)NC3CCCC3)cc21)Nc1ccc(F)cc1,inactive: -3.44%,
COc1ccc(-n2nc(C(=O)NCCc3ccc(Cl)cc3)c3c4ccccc4n(C)c3c2=O)cc1Cl,inactive: 6.45%,
Cc1cc(C)n(CC(=O)Nc2ccc(F)c(F)c2)c(=O)c1C#N,inactive: 0.96%,
CC(C)C[C@@H](N)[C@H](O)C(=O)N[C@H](C(=O)N[C@H](C(=O)N[C@@H](CC(=O)O)C(=O)O)C(C)C)C(C)C,inactive: -22.4%,
COc1ccc(CCNC(=O)c2c(O)nc3cc(C)ccn3c2=O)cc1OC,inactive: -4.45%,
O=C(Cn1nc2c(cc1=O)CCCC2)Nc1ccc(F)cc1F,inactive: 3.86%,
COc1ccc(N2CCN(C(=O)Cc3coc4ccc(C)cc34)CC2)cc1,inactive: 20.8%,
COc1ccc(C)cc1NC(=O)C(=O)NCCc1sc(-c2ccc(Cl)cc2)nc1C,inactive: -8.28%,
CC(=O)c1cccc(NC(=O)CCS(=O)(=O)c2cc3c(cc2C)NC(=O)CO3)c1,inactive: -4.79%,
CCc1noc(-c2ccc(NC(C)c3ccccc3)c([N+](=O)[O-])c2)n1 (stereo not given),inactive: -18.7%,
CCN(CC)C(=O)C1=C(C)Nc2nc3ccccc3n2C1c1ccc(Br)cc1 (stereo not given),inactive: -1.13%,
CCOC(=O)c1c(NC(C)=O)c2c3c(sc2n1Cc1nc(-c2ccc(Cl)cc2)oc1C)CCCC3,inactive: -13.4%,
CCOc1ccccc1C1N=C(N)Nc2nc3ccccc3n21 (stereo not given),inactive: -15.8%,
Cc1nc(N2CCCC2)c2c(C(=O)Nc3ccc(C)c(Cl)c3)c(C)oc2n1,inactive: 0.0454%,
CCC(CC)C(=O)Nc1cc(-c2cn3cccnc3n2)ccc1OC,inactive: -14.6%,

Compound,"activity change, negative = inhibition",Potency
Cc1ccccc1-c1nnc(CN2CCN(c3cc(Cl)ccc3C)CC2)o1,inactive: -16.4%,
COc1ccc(C(CC(=O)Nc2ccc(C)cn2)N2Cc3ccccc3C2=O)cc1OC (stereo not given),inactive: -15.3%,
CCOC(=O)N1CCC(NC(=O)c2ccc3c(c2)N(Cc2cccc(C)c2)C(=O)c2ccccc2S3(=O)=O)CC1,inactive: -34.1%,
COc1cccc(CNC(=O)c2nnn(CC(=O)Nc3cc(Cl)ccc3C)c2N)c1,inactive: -17.1%,
O=S(=O)(c1ccc(F)cc1)N1CCC(Oc2ccc(-n3cnnn3)cc2)CC1,inactive: -3.19%,
COc1cccc(CNC(=O)Cn2c(=O)oc3cc(S(=O)(=O)N4CCCC4)ccc32)c1,inactive: -19.4%,
CCC(=O)N1CCc2cc(Br)cc(S(=O)(=O)CCC(=O)Nc3cccc(CC)c3)c21,inactive: -5.13%,
CCn1cc(C(=O)N2CCN(c3cc(Cl)ccc3C)CC2)c2cc(OC)c(OC)cc2c1=O,inactive: -6.4%,
CC(NC(=O)C1(c2cccs2)CCOCC1)c1ccccc1 (stereo not given),inactive: -7.77%,
Cc1ccc(CN2CCSc3ccc(C(=O)Nc4ccc(Cl)cc4)cc32)cc1,inactive: 19.3%,
CCOc1ccc(CCNC(=O)CCCc2cc(-c3ccc(OCC)cc3)on2)cc1,,active: 316 nM
O=C(Cc1csc2ccccc12)NCc1cccc(Br)c1,inactive: 11.2%,
Cc1ccc2nc(/C(C#N)=C/c3cccc(Br)c3)[nH]c2c1,inactive: -3.86%,
CN(C)S(=O)(=O)n1cc(/C=C(\NC(=O)c2ccccc2F)C(=O)NCCCn2ccnc2)c2ccccc21,inactive: 1.28%,
Cc1ccccc1CN1CCC(CNc2ncnc3onc(-c4ccc(Cl)cc4)c23)CC1,inactive: -0.183%,
OC(c1cc(C(F)(F)F)nc2c(C(F)(F)F)cccc12)C1CCCCN1 (stereo not given),inactive: -19%,
Cc1ccc(NC(=O)C2CCCN(c3ncnc4c3nc3n4CCCCC3)C2)cc1F (stereo not given),inactive: -47.2%,
CCOc1ccc(NC(=O)c2c(NC(=O)c3ccco3)sc3c2CCC(C(C)(C)C)C3)cc1 (stereo not given),inactive: -3.96%,
O=C(O)CC(NS(=O)(=O)c1ccc(Cl)s1)c1ccccc1 (stereo not given),inactive: -5.33%,
COc1cc(NS(=O)(=O)c2ccc(NC(=O)C(C)Oc3ccc(Cl)cc3Cl)cc2)nc(OC)n1 (stereo not given),inactive: -21.8%,
O=C(Nc1cccc(C(F)(F)F)c1)C1CCN(c2nnc(-n3cccc3)s2)CC1,inactive: -4.66%,
COc1ccc(Nc2c(-c3ccc(Cl)cc3)nc3cnccn23)cc1OC,inactive: -14.3%,
CCC12CN3CC(C)(CN(C1)C3c1ccc(O)cc1O)C2=O (stereo not given),inactive: -15.4%,
